# System: bacteria of biosample (sputum)
# Assay: Antibiotic efficacy (presence or absence of bacterial growth) under normal or altered magnetic/electromagnetic field
# Conditions: antibiotic at mean concentration achievable at the site of infection during 4 h
Molecule,efficacy of antibiotics (bacterial growth with naked eye within 24 h) (Foil),efficacy of antibiotics (bacterial growth with naked eye within 24 h) (Mu-shield material),efficacy of antibiotics (bacterial growth with naked eye within 24 h) (Normal magnetic field)
C[C@H]1COc2c(N3CCN(C)CC3)c(F)cc3c(=O)c(C(=O)O)cn1c23 [Levofloxacin],S,S,S
CC[C@H]1OC(=O)[C@H](C)[C@@H](O[C@H]2C[C@@](C)(OC)[C@@H](O)[C@H](C)O2)[C@H](C)[C@@H](O[C@@H]2O[C@H](C)C[C@H](N(C)C)[C@H]2O)[C@](C)(O)C[C@@H](C)CN(C)[C@H](C)[C@@H](O)[C@]1(C)O [Azithromycin],R,R,R
CC(=O)NC[C@H]1CN(c2ccc(N3CCOCC3)c(F)c2)C(=O)O1 [Linezolid],R,R,S
C[C@@H](O)[C@H]1C(=O)N2C(C(=O)O)=C(S[C@@H]3CN[C@H](C(=O)N(C)C)C3)[C@H](C)[C@H]12 [Meropenem],S,S,S
CN[C@H](CC(C)C)C(=O)N[C@H]1C(=O)N[C@@H](CC(N)=O)C(=O)N[C@H]2C(=O)N[C@H]3C(=O)N[C@H](C(=O)N[C@H](C(=O)O)c4cc(O)cc(O)c4-c4cc3ccc4O)[C@H](O)c3ccc(c(Cl)c3)Oc3cc2cc(c3O[C@@H]2O[C@H](CO)[C@@H](O)[C@H](O)[C@H]2O[C@H]2C[C@](C)(N)[C@H](O)[C@H](C)O2)Oc2ccc(cc2Cl)[C@H]1O [Vancomycin],R,S,R
NCC[C@H](O)C(=O)N[C@@H]1C[C@H](N)[C@@H](O[C@H]2O[C@H](CN)[C@@H](O)[C@H](O)[C@H]2O)[C@H](O)[C@H]1O[C@H]1O[C@H](CO)[C@@H](O)[C@H](N)[C@H]1O [Amikacin],S,R,R
Amoxicillin clavulanate,R,R,S
CCC[C@@H]1C[C@@H](C(=O)N[C@@H]([C@H]2O[C@H](SC)[C@H](O)[C@@H](O)[C@H]2O)[C@H](C)Cl)N(C)C1 [Clindamycin],R,R,R
CO/N=C(\C(=O)N[C@@H]1C(=O)N2C(C(=O)[O-])=C(C[N+]3(C)CCCC3)CS[C@H]12)c1csc(N)n1 [Cefepime],S,S,S
CO/N=C(\C(=O)N[C@@H]1C(=O)N2C(C(=O)O)=C(CSc3nc(=O)c(=O)[nH]n3C)CS[C@H]12)c1csc(N)n1 [Ceftriaxone],S,S,S
